# Results: the supplement of paper PMC3334620
# In all, about 33,000 sequences were measured (“E-score (-0.5 to 0.5)”: median about -0.041, highest 2% from about 0.37 on). Some of the results follow.
# Biological target: T1, Ecm22 (UniProt Q05958)
# T1 sequence: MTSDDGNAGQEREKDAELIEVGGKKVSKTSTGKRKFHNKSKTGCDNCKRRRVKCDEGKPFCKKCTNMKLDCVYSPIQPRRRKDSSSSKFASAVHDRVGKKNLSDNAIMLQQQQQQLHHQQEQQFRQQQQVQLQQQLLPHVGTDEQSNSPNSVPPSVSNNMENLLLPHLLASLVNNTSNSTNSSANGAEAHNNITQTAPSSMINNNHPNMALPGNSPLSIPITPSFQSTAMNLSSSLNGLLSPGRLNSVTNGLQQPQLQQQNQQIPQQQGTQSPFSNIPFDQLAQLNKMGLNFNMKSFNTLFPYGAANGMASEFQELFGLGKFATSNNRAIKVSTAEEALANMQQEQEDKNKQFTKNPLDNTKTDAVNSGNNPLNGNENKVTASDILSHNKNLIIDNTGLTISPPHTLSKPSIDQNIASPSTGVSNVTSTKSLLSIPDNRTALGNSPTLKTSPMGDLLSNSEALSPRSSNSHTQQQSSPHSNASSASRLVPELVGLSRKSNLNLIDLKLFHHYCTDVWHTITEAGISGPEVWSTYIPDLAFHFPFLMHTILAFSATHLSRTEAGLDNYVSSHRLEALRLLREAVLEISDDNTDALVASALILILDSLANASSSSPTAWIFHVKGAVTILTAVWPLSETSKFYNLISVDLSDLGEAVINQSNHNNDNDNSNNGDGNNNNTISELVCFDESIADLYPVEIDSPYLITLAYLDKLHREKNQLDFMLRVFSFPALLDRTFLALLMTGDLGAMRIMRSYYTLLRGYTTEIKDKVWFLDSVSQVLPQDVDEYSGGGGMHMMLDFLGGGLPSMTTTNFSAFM
# Assay: PBM E-score (8-mer binding enrichment) (E-score (-0.5 to 0.5)); higher = stronger / more preferred TF binding; most listed sequences are background and not binding sites
# Conditions: protein concentration: 200 nM; construct: GST-full length
# Summary of the method: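 Bound GST-tagged yeast transcription factors, applied at about 100-200 nM to double-stranded universal all-10-mer Agilent arrays, were detected with fluorescent anti-GST. Scans were normalised with masliner. A modified Wilcoxon-Mann-Whitney statistic, the E-score, was assigned to each ungapped eight-base word pooled with its reverse complement by the Universal PBM Analysis Suite.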
row,Sequence,PBM E-score
1,TAGGCACA,-0.249
2,CAGAGATC,-0.206
3,TCCGGGAA,-0.124
4,AATTTTTG,-0.201
5,CCCTCACG,-0.288
6,AATCGTGG,-0.165
7,GGGTTGAC,-0.206
8,AAAAGGAG,-0.0638
9,GCATGCCC,0.00907
10,ATCCAGTA,0.0422
11,AGACGACG,0.23
12,CAGAAATA,-0.07
13,AACGGCAC,0.22
14,CTCCGAAG,0.136
15,ATGCCCTC,-0.029
16,GAGCTCGA,0.237
17,CTACAGAA,0.0488
18,CCTTTGTC,0.0478
19,ATCATCGC,0.0962
20,GCGCCCGC,-0.173
21,GCGATCCC,-0.0537
22,TCAATTGA,0.173
23,GCAAGAAC,0.116
24,CCAGCGCG,0.0459
25,CATCGGTC,0.132

row,Sequence,PBM E-score
1,CATCTTCA,-0.258
2,CAGAGATG,-0.19
3,CCTGACTC,-0.0986
4,AGACCTTC,-0.0826
5,GCCCATCA,-0.0951
6,AACTGAAA,-0.0774
7,CCCAAGAC,-0.239
8,CTCTCGCA,0.0954
9,CTTGGGCC,-0.135
10,AAATATGG,-0.0875
11,ATCAAGGG,-0.149
12,GTATCAAC,-0.0727
13,CAGGATTA,-0.13
14,CGAGCACC,0.216
15,ACGACGAT,0.325
16,TACGCATA,0.303
17,TATCGAAA,0.145
18,CTTGTCGC,0.125
19,ACTGAGAT,-0.052
20,AACTAAAG,-0.0962
21,AGGGAACA,-0.166
22,AAGTTCAT,-0.0862
23,AGGGAGTA,-0.206
24,CACGTTGC,0.119
25,GGACCCCC,-0.251

row,Sequence,PBM E-score
1,GAGCGCGC,0.185
2,AGGTCGAC,-0.0604
3,AGGCGGCC,-0.182
4,AGACCACC,-0.179
5,ACTTGCAC,-0.123
6,AAACGTAT,0.319
7,GCGCAAAA,-0.0207
8,AAATGTGG,-0.0721
9,ACCGTAAA,0.326
10,ACTGGCAA,-0.2
11,ATGGGGCG,-0.148
12,TCTGGCCA,-0.217
13,ATCGACGC,0.0291
14,GCGATACC,-0.0421
15,CCTTAGCA,-0.287
16,AGAACTGA,0.113
17,GGCCAGAC,-0.284
18,GCGGTTGA,-0.0818
19,GGATTAAA,-0.061
20,ATTTAGTA,0.0461
21,GGCCAACC,-0.0544
22,ACACTCCT,-0.163
23,AATGATAA,0.0159
24,AATTCCAC,-0.0657
25,ACGATGCA,0.344

row,Sequence,PBM E-score
1,ATAGTAGA,-0.0235
2,ACTGTTGA,-0.238
3,AGTATCTG,-0.132
4,TATATGAA,0.162
5,GAGGTATA,0.151
6,ATGTTCAA,-0.175
7,CGTGGTTA,-0.028
8,CGAAAGCC,-0.0951
9,ACAATGCA,-0.0318
10,CAGGTTGG,-0.0277
11,CCGCACGG,-0.257
12,CCGCCTTA,-0.164
13,AAGTTCCT,-0.108
14,AGTACTAA,0.0573
15,AGTCCGTC,-0.217
16,AAGACACG,0.188
17,AGATTCCA,-0.11
18,CAACTCAC,-0.13
19,GCAGAATA,0.0132
20,ACGAGCCC,0.365
21,ATACCGAA,0.22
22,ATTCTATG,-0.0782
23,AGGATATG,-0.109
24,TGAACAAA,0.165
25,CAGTCTGG,-0.325

row,Sequence,PBM E-score
1,ATACGGGC,0.413
2,CTTTGCCC,-0.211
3,AGCGCGGA,-0.0298
4,ACGCACTA,0.103
5,ATCTATTA,-0.0343
6,AGACCCCC,-0.218
7,ATGTATGG,-0.0964
8,CCCCTGAA,0.033
9,CATCCAAG,-0.278
10,GCTAGTTA,-0.0992
11,AAGGGTAG,-0.154
12,CCTTCAAG,-0.257
13,AGCACGAT,0.116
14,GAAGGTTA,-0.016
15,ATAACTTC,0.00897
16,CCCTTGAG,-0.18
17,GCCACTGA,-0.0723
18,AAGGAGGA,0.0817
19,CCATAACG,0.00187
20,GAGCCTGA,-0.18
21,GGAAAATA,0.0993
22,AACGTCTA,0.0113
23,GACATACA,0.0198
24,ACTAACTG,-0.161
25,GTAGAGGA,-0.111

row,Sequence,PBM E-score
1,CATTTGTC,0.0578
2,GCCAGAGA,0.0314
3,CATGAGGG,-0.094
4,CATACTGA,-0.0759
5,ACCCTCGG,0.0481
6,GCTGTATA,0.0485
7,ACACTGGA,0.0175
8,AACGCCGT,0.128
9,AATCAGCG,0.0212
10,CCTATTGC,-0.0995
11,AAATACCT,-0.144
12,AAATTCTC,0.05
13,GCATGGGA,-0.216
14,GATCCCAA,-0.265
15,CGACCTGA,0.253
16,ATGGCAGG,-0.0293
17,GTCCGCAA,0.027
18,GGAGTCAC,-0.214
19,GCCTTTCA,-0.108
20,AGACAAGG,-0.178
21,ATGGGCGA,-0.0942
22,ACTATGAA,-0.0422
23,CGCAGCTC,0.0643
24,AAATACTC,-0.0418
25,GCGTCTAA,-0.204

row,Sequence,PBM E-score
1,AGGTCGCG,0.05
2,ACCTACCA,-0.21
3,CGAGAGGC,0.0476
4,CGCTAGAA,-0.129
5,ATGGCGGG,-0.122
6,CGGCAGCA,-0.14
7,TCGTGGCA,-0.0281
8,CGACTTCC,-0.0118
9,GCGCTTAA,0.0179
10,ACCTGCTA,0.0415
11,ACTTATCC,0.0349
12,AGTTGAGG,-0.245
13,GCCTGGAC,-0.216
14,AAGGTTTC,-0.159
15,AGAGAAGG,-0.261
16,ATTGAATC,-0.113
17,AGACTAAG,-0.00025
18,ATTTCACG,0.206
19,GAGCTTGA,-0.159
20,CGGAACCC,-0.0002
21,GATCCTGC,0.0357
22,AGAGTCCT,-0.264
